# In all, about 33,000 sequences were measured (“E-score (-0.5 to 0.5)”: median about -0.056, highest 2% from about 0.38 on). This is one part of the list.
# Target: Stb4 (UniProt P50104)
# Test: PBM E-score (8-mer binding enrichment) (E-score (-0.5 to 0.5)); higher = stronger / more preferred TF binding; most listed sequences are background and not binding sites
# Conditions: protein concentration: 200 nM; construct: GST-DNA-binding domain
# How it was run: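 Detection of bound protein used fluorescent anti-GST, with scans normalised by masliner. The proteins were GST-tagged yeast transcription factors applied at about 100-200 nM to universal all-10-mer Agilent arrays made double-stranded by primer extension. Each ungapped eight-base word, pooled with its reverse complement, was scored with an E-score from the Universal PBM Analysis Suite.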
row,Sequence,PBM E-score
1,AGGCAAGC,-0.188
2,CGTCCCTA,-0.0426
3,CTGGCTGC,-0.108
4,CATGATAC,0.121
5,CGAGATTC,0.229
6,CCAAGTAG,-0.308
7,CCTGGTCG,0.0328
8,CTTTTGCC,0.0374
9,ATTTCCTG,-0.0528
10,GAGACCCC,0.0379
11,GGACAGCA,-0.0714
12,CGAATGAA,0.0337
13,ACTGCTAG,-0.239
14,AGGGGGGG,-0.356
15,AGACTTTG,-0.234
16,AATTTTGA,-0.0291
17,GATCAGTA,-0.0566
18,CCAAGGAA,0.0787
19,AAAGTGTC,-0.00674
20,ACTATGGA,-0.238
21,CCCGTCGA,0.102
22,GATAAAAA,0.152
23,CATAGGCA,-0.204
24,CGCCTAGA,-0.0246
25,GGGAAGTA,0.184

row,Sequence,PBM E-score
1,GGTCCTAA,0.0238
2,TCCCCGAA,0.37
3,CAATCGCA,-0.123
4,ACGACTCA,0.0822
5,CGCCCACG,-0.0319
6,CCGCTGTA,0.0877
7,GACGCATC,0.122
8,GTCACTTA,0.0135
9,TTAATTAA,-0.3
10,ATGGGCCG,0.143
11,GGATCTGA,0.219
12,ATTCGTCA,-0.114
13,ACCCTGAC,-0.0728
14,AGTATCTA,-0.242
15,AGTGTGCG,0.0389
16,CCTTAGGC,-0.179
17,ACGATTCC,0.06
18,ATGGTGTC,-0.0683
19,ATGGTATC,0.089
20,GTTATTGA,-0.0873
21,CAATGGGA,-0.0868
22,TAGGTATA,-0.103
23,GAATGGAC,-0.0937
24,CCGTATTA,0.183
25,AAATATGC,0.00259

row,Sequence,PBM E-score
1,AAATCCCA,-0.122
2,CCAACCGC,0.059
3,TCCGCCCA,0.162
4,GGTGGCTA,-0.106
5,AAGATTAT,0.113
6,GATTATTA,0.17
7,AATTTAGA,-0.00117
8,TAATACAA,-0.0486
9,CCGGGTCC,0.237
10,GTTGCAGA,-0.0619
11,TTCTACAA,-0.129
12,TCCCTTAA,-0.364
13,GCGTTCAA,-0.0369
14,CTTAAATC,-0.0323
15,TCAAGTAA,-0.19
16,ATAAGCCG,0.315
17,CTCGTTCA,-0.122
18,CCTAAAAA,-0.0526
19,TGGCAAAA,-0.121
20,CCAGTTAC,-0.082
21,ATCCCAGG,-0.0327
22,ACGAAGTG,-0.167
23,ACAATTAT,0.0362
24,ATTTGTGG,-0.0839
25,ACCAGACT,-0.255

row,Sequence,PBM E-score
1,CCCCTATC,-0.0491
2,GAAGAGCC,0.195
3,AGTCCGTA,-0.0959
4,ATATAGTG,0.0301
5,ACTCGCAC,-0.013
6,ACCGCACG,-0.0588
7,AATGTTCC,0.218
8,CCCGTCGG,0.386
9,GTTCACTA,0.0434
10,CAATTGCG,-0.0138
11,GCCCCAAC,-0.0431
12,AGGTCATC,-0.0883
13,ATCAACTG,-0.046
14,ACAGCCTA,-0.0622
15,GCCGTTAA,0.0637
16,AAGAGGTC,-0.0783
17,CTTTGCAC,-0.123
18,ACATAGCG,-0.168
19,GCATCCTA,-0.163
20,CAGGAGAC,-0.147
21,CAATGGTC,-0.203
22,CAAATCCG,0.232
23,TCAGTGCA,-0.142
24,AAAGGTTC,0.0344
25,CACAACAG,-0.278

row,Sequence,PBM E-score
1,CTTGGTCC,0.0297
2,AGAATACG,-0.0662
3,AAGGGAAG,-0.0989
4,CAGCAGGA,-0.246
5,AACCGGGA,0.231
6,GAACACAC,-0.0596
7,AGAAGTTC,-0.0927
8,CTATACGC,-0.092
9,CTGCTTCC,0.0659
10,CAACCTAG,-0.123
11,AGCCTGGG,-0.0641
12,AATGCTCC,0.119
13,CAGTCCCA,-0.198
14,GTCGAAAA,-0.122
15,ATAATGGC,-0.0423
16,ATCCGGGG,0.398
17,AATTAACA,0.00024
18,TGGCGACA,-0.0476
19,TAAAACTA,-0.0756
20,CACTGCCA,-0.176
21,AAGGTGTA,-0.155
22,ACAACTCC,0.0549
23,GCGACTAC,-0.0905
24,ACTGGCTG,0.0417
25,CCATGCAA,0.017

row,Sequence,PBM E-score
1,AAAGCATT,-0.147
2,CGATCTAA,0.0211
3,GGGGGACC,-0.00314
4,AACCCAGT,-0.00645
5,AGAATGAT,-0.204
6,AAGTACTC,-0.16
7,CAATAGTA,-0.0984
8,GTTGTCCA,-0.329
9,GTTCGTAA,-0.0144
10,AAATCCAG,-0.141
11,AGCTGTGA,-0.0782
12,CTTTAGTA,-0.181
13,CGGCCCCA,-0.0168
14,ATCGAGCC,0.0138
15,GCTTAACA,-0.0152
16,TGAAGGCA,-0.188
17,CATGCATA,-0.204
18,TCGGTGCA,0.212
19,CTCACATA,-0.267
20,TAGTGGAA,-0.0485
21,CGGCGATC,0.113
22,CCGGCAGA,0.286
23,GCGCCGGA,0.31
24,ACGCTTAT,-0.157
25,GACCAGGC,-0.273

row,Sequence,PBM E-score
1,AGAGACAG,-0.143
2,AGATTAGC,-0.168
3,GTGCAGAA,-0.184
4,ATTTGGAA,0.0129
5,TAATTCCA,-0.106
6,CTAGGATC,-0.117
7,GAGTCCTA,-0.237
8,ATAGGGTA,-0.132
9,CTTGCGAC,-0.132
10,AACTCCAC,-0.133
11,AAGGTCAA,-0.349
12,GCAGAGCA,-0.206
13,GATGTCGA,-0.0791
14,CTAAGCCC,0.00404
15,TAGGAGCA,-0.165
16,AATATTTC,0.137
17,AGTTTGCG,-0.133
18,CGATCGTA,0.103
19,AAGAATGG,0.0251
20,CTGCCCTA,-0.125
21,AACTGGCG,-0.0401
22,CTACCTAG,-0.0103

# From the supplement of paper PMC3334620
